The values below come from publication PMC8141872 (The Journal of Biological Chemistry, 2021).

The target of assay [1] is T1, Ras suppressor-1 (Rsu-1), wild type, full length (human, UniProt Q15404 1-277).
T1 construct: after thrombin cleavage a few of its residues probably remain (surmised); also called Rsu-1 (WT); Rsu-1 WT; not shown: His6, N-terminal, cleaved
T1 sequence (looked up): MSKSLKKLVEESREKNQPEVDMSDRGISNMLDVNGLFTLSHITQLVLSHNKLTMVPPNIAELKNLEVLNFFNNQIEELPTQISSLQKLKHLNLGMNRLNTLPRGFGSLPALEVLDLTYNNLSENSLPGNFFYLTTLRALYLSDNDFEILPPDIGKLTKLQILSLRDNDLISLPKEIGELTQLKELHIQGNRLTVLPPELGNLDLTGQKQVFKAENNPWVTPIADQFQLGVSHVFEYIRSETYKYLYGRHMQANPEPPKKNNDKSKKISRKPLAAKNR
The assay can be described thus: BLI; BLItz; GST-fused PINCH protein or GST (0.05 mg/ml) loaded on anti-GST biosensor, Rsu-1 WT or mutant in the mobile phase; 20 mM Tris pH 7.5, 150 mM NaCl, 1 mg/ml BSA, 0.05% Tween-20; 1:1 global fit; at least three measurements. As to conditions: both partners purified. On the technique in general: In BLI a coated tip is dipped into the sample, and binding shifts an interference pattern.

The target in assay [2] is T2, Rsu-1 double mutant FRAA (Phe71Ala, Arg165Ala) (human, UniProt Q15404 1-277, Phe71Ala | Arg165Ala).
T2 construct: human Ras suppressor-1 (Rsu-1), residues 1-277, with Phe71Ala and Arg165Ala; also called Rsu-1 (FRAA); double-negative mutant; source: baculovirus-infected Sf-9 insect cells, purified as for the wild type; not shown: His6, N-terminal, cleaved
T2 sequence (looked up): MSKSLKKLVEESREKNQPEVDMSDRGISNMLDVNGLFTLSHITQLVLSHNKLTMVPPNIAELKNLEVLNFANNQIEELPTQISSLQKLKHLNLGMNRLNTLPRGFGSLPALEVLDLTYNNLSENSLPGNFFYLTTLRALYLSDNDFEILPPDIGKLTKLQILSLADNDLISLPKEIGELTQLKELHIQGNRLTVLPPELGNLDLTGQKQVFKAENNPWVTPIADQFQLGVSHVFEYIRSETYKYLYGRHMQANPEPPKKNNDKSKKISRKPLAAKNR
The description is as above. As to conditions: both partners purified.

B1: GST-fused PINCH-1 LIM4-5 domains ([…]) (domain or fragment, human)
chain: GVPICGACRRPIEGRVVNAMGKQWHVEHFVCAKCEKPFLGHRHYERKGLAYCETHYNQL[here about 80 residues without letters]
notes: human PINCH-1 LIM4-5 domains, […]; Cloned in pGEX4T1; held on the anti-GST biosensor; also called PINCH-1 LIM4-5 domains (WT); source: E. coli Rosetta 2 (DE3), purified (GSTrap)
Molecule B1 had a dissociation constant (Kd) in assay [1] of 1.37 ± 0.5 nM.

B2: GST-fused PINCH-1 LIM5 domain ([…]) (domain or fragment)
chain: not shown
notes: human PINCH-1 LIM5 domain, […]; Cloned in pGEX4T1; held on the anti-GST biosensor; also called PINCH-1 LIM5 domain (WT); source: E. coli Rosetta 2 (DE3), purified (GSTrap)
Take B2: the equilibrium dissociation constant (Kd) is 1.77 ± 0.59 nM in assay [1] and 1390 ± 100 nM in assay [2].

B3: GST-fused PINCH-1 LIM5 domain ([…]) D295V (domain or fragment)
chain: not shown
notes: human PINCH-1 LIM5 domain, […], with Asp295Val; also called PINCH-1 LIM5 domain (D295V); source: E. coli Rosetta 2 (DE3), purified (GSTrap)
In the case of B3, in assay [1], binding was characterised by a dissociation constant (Kd) of 1520 ± 200 nM.

Usually Kd stands for a measure of binding affinity in units of concentration. A higher Kd goes with a looser complex.
